The other results are listed elsewhere or left out. These are noisy estimates, calculated here from bound and input reads.
Molecular target: T1, Pho4 (S. cerevisiae) (UniProt P07270)
T1 sequence: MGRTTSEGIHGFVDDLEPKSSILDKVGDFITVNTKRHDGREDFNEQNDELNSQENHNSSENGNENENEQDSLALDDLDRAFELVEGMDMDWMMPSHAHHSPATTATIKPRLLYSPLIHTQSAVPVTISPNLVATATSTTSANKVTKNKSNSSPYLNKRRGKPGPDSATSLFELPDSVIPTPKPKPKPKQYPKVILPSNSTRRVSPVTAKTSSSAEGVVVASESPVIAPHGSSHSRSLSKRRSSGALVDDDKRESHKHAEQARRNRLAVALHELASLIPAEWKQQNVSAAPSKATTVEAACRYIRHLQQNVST
Assay: relative binding free energy (BET-seq); higher = weaker binding
Settings: reference: library average

Relative binding free energy, 0.09 kcal/mol:
CAAGGCACGTGAGGGT
GTTGTCACGTGCGGTT
TAAATCACGTGGTCGT
CGTGGCACGTGATTTA
GTTAGCACGTGTGTAT
TTAATCACGTGTGTGA
TTGATCACGTGGCTTG
TAAGACACGTGTTGTA
TACAGCACGTGTTGCT

Relative binding free energy, -0.22 kcal/mol:
TGGGGCACGTGCATAG
AGGGCCACGTGGGTCA

Relative binding free energy, -0.17 kcal/mol:
TCGTGCACGTGGGCTG
ATAGGCACGTGATATT
TGGACCACGTGGGTGT
TGTGGCACGTGTGACA

Relative binding free energy, 0.22 kcal/mol:
TGGTTCACGTGGACGG
GTGAGCACGTGAGTAG
TAGGTCACGTGGTTCG

Relative binding free energy, -0.4 kcal/mol:
TTTGGCACGTGGGCGC

Relative binding free energy, -0.07 kcal/mol:
GAAGGCACGTGTGGTG
ATCAACACGTGGGGGA
GGCTGCACGTGGTGTG

Relative binding free energy, 0.36 kcal/mol:
TTGATCACGTGTCAGC

Relative binding free energy, -0.09 kcal/mol:
ATGTCCACGTGGGTGC

Relative binding free energy, 0.23 kcal/mol:
CGGGTCACGTGTAGGC

Relative binding free energy, -0.21 kcal/mol:
ACTGGCACGTGGTTTT
TGGACCACGTGGGGTA

Relative binding free energy, 0.24 kcal/mol:
AGGGTCACGTGGAGTA
AAATCCACGTGAGGGG
TCTGTCACGTGATTAG

Relative binding free energy, 0.25 kcal/mol:
ATTTACACGTGCGATA
GGTTGCACGTGATCGC
AGATCCACGTGAGTGT

Relative binding free energy, -0.16 kcal/mol:
AAAGGCACGTGTGTGG
TTGGGCACGTGCAAGG

Relative binding free energy, 0.28 kcal/mol:
GAAGGCACGTGAGTAG
AGTTTCACGTGTGTAT
AAGGTCACGTGAAGTA

Relative binding free energy, -0.02 kcal/mol:
GAGTACACGTGGCAGG
TATGACACGTGGATTG
TTTAGCACGTGGGAAG
GTATGCACGTGTGAAT
TTGGACACGTGTTGTC
GGGGACACGTGGTATC
AGAGGCACGTGTTGGG

Relative binding free energy, -0.01 kcal/mol:
CTGCCCACGTGGTGGG
TGAATCACGTGGGCTT
ATTTGCACGTGGGGAT
GGATACACGTGGGTAG
AGTGGCACGTGCGAAT
GGGTGCACGTGTCTCG
GGCTCCACGTGGGTTT
CGTGTCACGTGGGGTT
AAGTCCACGTGGTGAG

Relative binding free energy, -0.14 kcal/mol:
TGGCGCACGTGCAGTG
CCGGTCACGTGGGTGC
AGGGGCACGTGGGGAG
TATGTCACGTGGGTGA

Relative binding free energy, -0.24 kcal/mol:
GTTGGCACGTGGGGTA

Relative binding free energy, 0.13 kcal/mol:
TAAGTCACGTGTTAAA
ACTTACACGTGTTGGG
TGTGTCACGTGTCTGA
GTGGTCACGTGGACAT
AGATGCACGTGATGGT
GTGGTCACGTGGGAAA
GTTGTCACGTGCAGGA
GCTGGCACGTGGATTA
GGAGACACGTGTTATA
CGGGTCACGTGTAAGA

Relative binding free energy, 0.26 kcal/mol:
ATTTACACGTGAGTTT

Relative binding free energy, 0.04 kcal/mol:
ATGTACACGTGTGATG
GTCGTCACGTGTAGGA

Relative binding free energy, -0.19 kcal/mol:
AGTGGCACGTGGCTTT
ATTAGCACGTGGCATG
TCGAGCACGTGGTTAG

Relative binding free energy, -0.2 kcal/mol:
ATGTGCACGTGTTAGC
AATGGCACGTGATCGG

Relative binding free energy, 0.11 kcal/mol:
AGTATCACGTGATAGG
TATTACACGTGGATAG
GGGTCCACGTGTGGCT

Relative binding free energy, 0.01 kcal/mol:
TTCGGCACGTGTGGAA
GGGGGCACGTGTATTT
ATTGTCACGTGGGTTC

Relative binding free energy, 0.41 kcal/mol:
CGTTTCACGTGTTTCT

Relative binding free energy, 0.08 kcal/mol:
CGGGTCACGTGGTTTA
TTCGTCACGTGTGGGG
AAATTCACGTGGGGGT
GTATACACGTGGTAGC
ATGCGCACGTGAGGGC

Relative binding free energy, 0.14 kcal/mol:
AGCCTCACGTGGGAGG
GTGATCACGTGTGTCA

Relative binding free energy, -0.26 kcal/mol:
AGGCGCACGTGGTTTT

Relative binding free energy, 0.29 kcal/mol:
GAGTACACGTGTGGAA

Relative binding free energy, -0.11 kcal/mol:
ATTGGCACGTGTTAGC
CTTGCCACGTGTGGTG
GGGGCCACGTGGGCGC
TTTGACACGTGCGTGT
GGGAGCACGTGCGGAT
ATATACACGTGGCGGT

Relative binding free energy, 0.3 kcal/mol:
GGTATCACGTGAGCTG
GATAGCACGTGAGTAT
TTGCGCACGTGAAAGG
ATAATCACGTGTGGGC

Relative binding free energy, 0.31 kcal/mol:
TTTTTCACGTGTTCGG
CAGGGCACGTGAAGTG
GGTATCACGTGTGATA

Relative binding free energy, 0.15 kcal/mol:
CGGTGCACGTGATGAG

Relative binding free energy, -0.08 kcal/mol:
GGTGGCACGTGTTGCC
GGAGCCACGTGTCGGG
CTGGGCACGTGAGGCG
AGACACACGTGGGGGT
GCTGACACGTGGGTAG

Relative binding free energy, 0.39 kcal/mol:
GGTCTCACGTGTATAG

Relative binding free energy, -0.12 kcal/mol:
CTTAGCACGTGCGTGG
TTAGGCACGTGCAGGT
GGTGGCACGTGGACTT
GTGAGCACGTGGTCGT

Relative binding free energy, -0.04 kcal/mol:
GGTTGCACGTGGTGCG
TTGGCCACGTGCTTAG
ATAAGCACGTGTTGGC
TTAGGCACGTGGCGCT
GATACCACGTGTTTGT
TATTACACGTGTAGGG
AGTGACACGTGTTTGG
TTAAGCACGTGTGAGT

Relative binding free energy, 0 kcal/mol:
TGGTACACGTGGTTGG
TTCCGCACGTGGTTAT
GAGTGCACGTGCTAGG
TGGAACACGTGCTTGT
ATTGTCACGTGGTATG
TTAAACACGTGGGGAG
TAGAGCACGTGACGGT
TCTCGCACGTGCGTGG
GTGGGCACGTGGTTTC
GGTATCACGTGGGCAA
ATGACCACGTGTTGTT

Relative binding free energy, 0.02 kcal/mol:
TGGTACACGTGGTAGA
AACGGCACGTGTATTG
ATGGGCACGTGTAAGT
TAGGGCACGTGTAAAG
TTCAGCACGTGTGCTT
ATGGTCACGTGGCTAG

Relative binding free energy, 0.5 kcal/mol:
GTCATCACGTGAAGAG

Relative binding free energy, 0.07 kcal/mol:
AATGACACGTGGGTTT
AGTGTCACGTGTCGTG
GACAACACGTGGTGTG
GTTGTCACGTGGGTCA

Relative binding free energy, 0.19 kcal/mol:
GGTTGCACGTGATTAT
TGGACCACGTGAGGTT

Relative binding free energy, 0.34 kcal/mol:
ATTAGCACGTGAAGGC

Relative binding free energy, 0.35 kcal/mol:
GGTGTCACGTGAATCG

Relative binding free energy, -0.03 kcal/mol:
GTCGTCACGTGGGGTA
TTCGGCACGTGTGCTT
ATATGCACGTGCGGGT
ATTCGCACGTGTTTTA
TTTAGCACGTGGAGTC
ATAGCCACGTGATGGG

Relative binding free energy, 0.37 kcal/mol:
GAGTTCACGTGATGAG
GGGTTCACGTGTGGGA

Relative binding free energy, 0.47 kcal/mol:
TCGGTCACGTGAGTAG

Relative binding free energy, 0.16 kcal/mol:
GGCTTCACGTGCGGGG
TTAGTCACGTGTTGGT
TGTCTCACGTGGTATG
ATTAGCACGTGAGGAA

Relative binding free energy, 0.06 kcal/mol:
GAGGGCACGTGATGTA
GGCGTCACGTGTTAGT
TATCTCACGTGGGTTA
GTAGTCACGTGGTCTT
CTAATCACGTGTTGTG
TGTATCACGTGGATAA

Relative binding free energy, -0.1 kcal/mol:
TGTAGCACGTGGGCCA
GTTGGCACGTGTACGG
CGAAGCACGTGGGGTT
AAGTCCACGTGGGTGG

Relative binding free energy, -0.06 kcal/mol:
GGGGGCACGTGTGGCA
GTGTACACGTGGTGGT

Relative binding free energy, -0.13 kcal/mol:
TCGAGCACGTGTGTAG
GATGCCACGTGGGTAG

Relative binding free energy, 0.05 kcal/mol:
GTTGTCACGTGCCTTG
CTGGGCACGTGATGTT
GGGTGCACGTGACGCG

Relative binding free energy, 0.18 kcal/mol:
TCTAACACGTGAGTGG
AGTTTCACGTGGTGGC
TGGTCCACGTGATGGT
GTTAACACGTGAGTGA
GATTGCACGTGAGTAG

Relative binding free energy, -0.23 kcal/mol:
ATCTGCACGTGGGGCT

Relative binding free energy, 0.42 kcal/mol:
GTTTTCACGTGACAGG
TGCTTCACGTGAATTG

Relative binding free energy, -0.33 kcal/mol:
AGGGGCACGTGGCCTG

Relative binding free energy, 0.1 kcal/mol:
GCGTGCACGTGGATTT
CGGATCACGTGTTTTG
TAAGTCACGTGAGATG
AATGTCACGTGTGCGT
TGGGTCACGTGCCGTC
TGTAACACGTGTGAAA
GGTGGCACGTGAGAGT

Relative binding free energy, -0.18 kcal/mol:
TGGGGCACGTGCGGAT
GAGCACACGTGGGTGT
TGTGGCACGTGCGGAA

Relative binding free energy, 0.21 kcal/mol:
GTCGGCACGTGAGCGT
GGTATCACGTGTAGAG
GGTGACACGTGAGGAT
TGCTTCACGTGAAGGT
GTACGCACGTGAATTG
GTGGACACGTGATTTT

Relative binding free energy, 0.03 kcal/mol:
TTAGGCACGTGTCGTG
TTTTACACGTGTACGT
TATAACACGTGTCGGT
TGGGGCACGTGAAGCG
GTATGCACGTGGTGCG
GTTTACACGTGGGTTG

Relative binding free energy, 0.17 kcal/mol:
ATGATCACGTGTTAAG
TGGGACACGTGATTTG

Relative binding free energy, 0.32 kcal/mol:
ATAGACACGTGAATGT
TCTTTCACGTGTGGGT
GATTTCACGTGTAGAA
ACTTTCACGTGTTTTT
GGGGTCACGTGTTCGA

Relative binding free energy, 0.12 kcal/mol:
TTAGACACGTGTAGAG
GGGTACACGTGGAATT
TTAGTCACGTGGAGAA
AGTGTCACGTGTGGGC

Relative binding free energy, -0.15 kcal/mol:
AATTGCACGTGGTGCA

Relative binding free energy, -0.05 kcal/mol:
TGTAACACGTGTGGAT
GGTAACACGTGCTAGG
TTAATCACGTGGATAG
GTTGGCACGTGCGGAC
TGGACCACGTGGCGTG
TTGGGCACGTGAGCAT
